Data: PubChem BioAssay AID504832 (National Center for Advancing Translational Sciences (NCATS), 2011)
About 18,000 (5.8%) of roughly 310,000 compounds were called active. This list was built around the results that the source calls inconclusive (neither active nor inactive); the mix of calls is not that of the screen. The call rests on the fitted dose curve; in most records, active means well fitted inhibition curve with a large enough effect; inconclusive means small, poorly fitted or top-dose-only effect, or another doubt; inactive means no such curve, though single readings can be large or run the other way. No potency is given beside an inconclusive call; the fits are too rough.

assay: Primary qHTS for delayed death inhibitors of the malarial parasite plastid, 48 hour incubation; details: P. falciparum luciferase growth in erythrocytes; series mostly up to 28.7 µM; activity change, negative = inhibition: at the top concentration
Outline: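 Luciferase-expressing P. falciparum in infected erythrocytes (2% hematocrit, 0.1% parasitemia final) in RPMI 1640/0.5% Albumax were exposed to compound for 48 hours at 37 C, 5% CO2; growth read as luminescence.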
On the % scale 0 is the no-effect control and ±100 the full control effect; potency means the concentration at half of the fitted maximal effect; tags describe the fitted curve by direction and shape.

SMILES	Potency	activity change, negative = inhibition
COc1ccc(C(=O)N(CCc2ccccc2)Cc2ccccc2)cc1S(=O)(=O)N1CCOCC1	inconclusive [inhibitor, partial curve]	
CC(OC(=O)c1cn(C)c2ccccc12)C(=O)N(C)c1ccccc1 (stereo not given)	inconclusive [inhibitor, single point]	
CN1C2CCC1CC(N(CCc1ccccc1)C(=O)c1ccc(Cl)cc1)C2 (stereo not given)	inconclusive [inhibitor, single point]	
N/C(=N\OC(=O)Cc1ccc([N+](=O)[O-])cc1)c1cccc(Br)c1		inactive: -1.7%
O=C(CSc1ncnc2c1cnn2-c1cccc(Cl)c1)NCC1CCCO1 (stereo not given)		inactive: -16.2%
O=C(COc1ccc([N+](=O)[O-])cc1)Nc1ccc(C(=O)NCc2cccnc2)cc1	inconclusive [inhibitor, single point]	
COc1ccccc1CNC(=O)C1CCC(CNc2c(N3CCC(C)CC3)c(=O)c2=O)CC1 (stereo not given)		inactive: 0%
CCOc1ccc(Cn2c(SCCCCC#N)nc3c2c(=O)n(C)c(=O)n3C)cc1OCC	inconclusive [inhibitor, partial curve, poor fit]	
Cn1c(=O)c2c(nc(NCCNC(=O)c3ccco3)n2Cc2ccc(Cl)cc2Cl)n(C)c1=O	inconclusive [inhibitor, single point]	
N#C/C(=C\c1ccc(-c2ccc(Br)cc2)o1)C(=O)NCCc1c[nH]c2ccccc12		inactive: -6.03%
Cc1nc2sc(C(=O)OC(C)C)c(N)c2c(C)c1C		inactive: 116%
O=C(CN1CCN(c2ccccc2O)CC1)Nc1ccc(S(=O)(=O)N2CCCCCC2)cc1	inconclusive [inhibitor, single point]	
O=C(COc1ccc2c(c1)OCO2)NC12CC3CC(CC(C3)C1)C2	inconclusive [inhibitor, single point]	
Cc1cc(C(=O)NCc2cccs2)c(C)o1		inactive: -9.38%
CC(=O)OC1C(OC(C)=O)N(C(C)=O)C(=O)N1C(C)=O (stereo not given)		inactive: -3.9%
COc1ccc2[nH]c3c(C)c4ccncc4c(C)c3c2c1	active: 0.37 µM	
CC1(C)CC(=O)C=C(c2ccc(OC(F)(F)F)cc2)C1	inconclusive [inhibitor, partial curve, poor fit]	
COC(=O)C1=C(C)N(c2ccc(Cl)c(Cl)c2)C(=O)C1	inconclusive [inhibitor, single point]	
Cc1cc(C)c2c(CN3CC(C)OC(C)C3)cc(=O)oc2c1C (stereo not given)	inconclusive [inhibitor, partial curve, poor fit]	
CCn1nc(C(=O)Nc2nc(-c3ccccn3)cs2)c2ccccc2c1=O	active: 2.33 µM	
